Measurements from PMC6451091.
This is one part of the list. For part of these data: At the low end of the ranking the order means little. For part of these data: Measured with an extract: partners may take part in the binding.

Assays:
Details in all cases: 20 mM HEPES pH 7.9, 100 mM NaCl, 1 mM DTT, 0.2 mg/mL BSA, 0.02% Triton X-100, 2% milk, 0.4 mg/mL salmon testes DNA; 1 h; temperature not stated; high values mean tight binding; double strand, one strand shown; sequences stand for … in GCCTAGCAC…GTGCTAGGTCTTGATTCGCTTGACGCTGCTG
PU.1 (IVT) = PU.1 (IVT) (UniProt P17947); test: protein-binding microarray (PBM)
[1] = target: T1, FLI1 (endogenous, THP-1 nuclear extract) (UniProt Q01543); test: nuclear extract protein-binding microarray (nextPBM)
T1 sequence: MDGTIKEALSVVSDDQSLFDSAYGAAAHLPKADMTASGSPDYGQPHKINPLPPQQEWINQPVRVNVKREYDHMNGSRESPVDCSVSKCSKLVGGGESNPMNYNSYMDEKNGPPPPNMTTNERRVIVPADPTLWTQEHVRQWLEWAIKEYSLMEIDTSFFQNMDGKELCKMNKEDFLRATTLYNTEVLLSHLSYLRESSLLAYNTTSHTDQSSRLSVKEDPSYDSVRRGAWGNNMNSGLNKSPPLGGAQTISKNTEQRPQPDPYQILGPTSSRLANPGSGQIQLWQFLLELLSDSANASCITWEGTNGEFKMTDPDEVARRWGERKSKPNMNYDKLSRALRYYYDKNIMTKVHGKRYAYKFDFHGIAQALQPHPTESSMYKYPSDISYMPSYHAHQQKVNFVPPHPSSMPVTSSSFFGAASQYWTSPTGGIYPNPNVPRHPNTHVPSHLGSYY

[2] = test system: PU.1 (endogenous, THP-1 nuclear extract) + IRF8 (endogenous, THP-1 nuclear extract); test: as above

CTGGCAGGGAACTGGAACTC
binding signal (PU.1 (IVT)): 0.687 z-score | binding signal [1]: 0.43 z-score | binding signal [2]: -0.425 z-score

CTGCCAGGGAAGCGAAAGCA
binding signal (PU.1 (IVT)): -0.158 z-score | binding signal [1]: 0.621 z-score | binding signal [2]: 7.49 z-score

CTGCCAGAGAAGTGAAAGCA
binding signal (PU.1 (IVT)): -0.162 z-score | binding signal [1]: -0.318 z-score | binding signal [2]: 4.68 z-score

AAAAAAAGGCAATGAAAGTA
binding signal (PU.1 (IVT)): -0.00868 z-score | binding signal [1]: -0.573 z-score | binding signal [2]: 2.31 z-score

AGAAAAGGGAACTGAAACTC
binding signal (PU.1 (IVT)): 5.02 z-score | binding signal [1]: 2.66 z-score | binding signal [2]: 40.7 z-score

CTGCCAGGGAAGTGAAAGCA
binding signal (PU.1 (IVT)): 0.952 z-score | binding signal [1]: 0.671 z-score | binding signal [2]: 4.44 z-score

AAACAAAGGAAATGAAAGTA
binding signal (PU.1 (IVT)): 0.659 z-score | binding signal [1]: 2.26 z-score | binding signal [2]: 7.4 z-score

AAAAAAAGGAAATCAAAGTA
binding signal (PU.1 (IVT)): 2.26 z-score | binding signal [1]: 1.63 z-score | binding signal [2]: 0.0615 z-score

GGAATTAGGAAGTGAAACTT
binding signal (PU.1 (IVT)): 4.2 z-score | binding signal [1]: 3.3 z-score | binding signal [2]: 46.8 z-score

AAAAAAAGCAAATGAAAGTA
binding signal (PU.1 (IVT)): -0.182 z-score | binding signal [1]: 0.312 z-score | binding signal [2]: 1.49 z-score

TGCATGAGGAAGTGAAAGAA
binding signal (PU.1 (IVT)): 5.11 z-score | binding signal [1]: 2.34 z-score | binding signal [2]: 3.95 z-score

TGGCAGAGGAAGTGCAACTA
binding signal (PU.1 (IVT)): 2.82 z-score | binding signal [1]: 2.49 z-score | binding signal [2]: 1.16 z-score

AAAAAGAGGAACAGAAACTG
binding signal (PU.1 (IVT)): 5.78 z-score | binding signal [1]: 2.68 z-score | binding signal [2]: 42 z-score

CCAGAAAGGAAGTGAAACTC
binding signal (PU.1 (IVT)): 2.59 z-score | binding signal [1]: 2.92 z-score | binding signal [2]: 33.5 z-score

AGGGGAGAGAAGTGAAAGTG
binding signal (PU.1 (IVT)): 0.354 z-score | binding signal [1]: 0.389 z-score | binding signal [2]: 17.1 z-score

CAAAAGAAGAAGTGAAACTT
binding signal (PU.1 (IVT)): 3.75 z-score | binding signal [1]: 1.94 z-score | binding signal [2]: 43.5 z-score

TAAAGGAGGAACAGAAACCA
binding signal (PU.1 (IVT)): 1.73 z-score | binding signal [1]: 0.735 z-score | binding signal [2]: 10.8 z-score

TGGCAGACGAAGTGAAACTA
binding signal (PU.1 (IVT)): -0.497 z-score | binding signal [1]: 0.0264 z-score | binding signal [2]: 53.1 z-score

CTGGCAGGGAAATGAAACTC
binding signal (PU.1 (IVT)): 0.13 z-score | binding signal [1]: 1.25 z-score | binding signal [2]: 12.3 z-score

TAAAGGAGGACCTGAAACCA
binding signal (PU.1 (IVT)): -0.249 z-score | binding signal [1]: -0.477 z-score | binding signal [2]: 7.23 z-score

AATGGCAGGAAGTGAAACTA
binding signal (PU.1 (IVT)): 2.17 z-score | binding signal [1]: 4.63 z-score | binding signal [2]: 57.1 z-score
